In all, about 16,000 sequences were measured (“Z-score”: median about -0.37, highest 2% from about 3.2 on). Some of the results follow.
Test system: RBM10 RRM1-ZnF (GST-tagged construct)
Assay: RNAcompete 7-mer binding Z-score; higher = stronger binding preference
Method in brief: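 Bound RNA was identified by microarray hybridisation after GST-tagged RBM10 constructs (20 pmol) had been mixed with 1.5 nmol of a designed pool of 241 399 RNAs up to 41 nt, transcribed from microarray-derived DNA templates. Binding ran for 30 min at 4°C in 1 ml Hepes pH 7.8 buffer with KCl, NaCl, glycerol, DTT, BSA and glutathione Sepharose beads, with four 2-min washes at 4°C afterwards. For every heptamer motif, a one-sided Z-score for enrichment was computed across the probes that contained it.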

Sequence | RNAcompete 7-mer binding Z-score
CGCGAGA | -0.0285
UACUUAG | -0.396
AUAAUCG | -0.435
AGAUGCA | -0.0837
AGAUCCU | -0.961
GAUCAUA | -0.441
CUACGCA | -0.565
GCGCAUC | -0.324
GAGGUCA | 0.508
UUAUGAA | -0.311
GCACUCA | -0.522
GAGGGCU | 1.3
CUUAUCC | -0.876
GAUCACC | -0.587
AGGCUCC | -0.555
AUAGGGC | 1.72
GGACUCU | -0.431
UAAGUCA | -0.223
CACGCGG | 0.391
CUCAUAA | -0.808
CCGGAAG | 0.459
GCUGAUC | -0.318
GUCAUUU | -0.61
UGACGAC | -0.298
AAAUCGA | -0.155

Sequence | RNAcompete 7-mer binding Z-score
CCAGUCU | -0.694
GGUUCAC | 0.0333
UUGGGAG | 2.68
ACCCCCG | -0.197
AUGUAAA | 0.043
GCGGAGG | 3.17
UUAGUAA | -0.373
UGGGUUC | 1.14
CGAGAGU | -0.103
GUCCUUC | -0.701
GCAGGAC | 0.979
ACAGUGA | 0.202
AUCCUCU | -0.711
CAGUCAA | -0.522
CGCAAAU | -0.636
GGUGACU | 1.14
UGGUUGA | 2.02
CGGUGUG | 1.72
UCCUUCG | -0.854
AACUUAC | -0.763
UGUCUCU | -0.649
UAAAAUG | 0.0495
GAAAGAA | 0.716
GCUUUGC | -0.798
ACUAGGU | 0.439

Sequence | RNAcompete 7-mer binding Z-score
CUUGGAU | -0.168
UAGGGUG | 4.81
CAGGACA | 0.764
AGGCAGC | -0.0772
GAGAUUU | -0.301
GCCAUCG | -0.613
AUGCCCC | -0.639
GUGGAGG | 3.91
UCUACUC | -0.808
AGCAUGA | -0.119
GAAGCCA | -0.253
UGAUCUC | -0.733
ACUCCGC | -0.545
AGUAUCU | -0.707
UGAUCUG | -0.438
GCCCAUU | -0.925
UAACUGC | -0.568
CCGGCGA | -0.145
GGCUUCG | -0.0544
CGGUAUC | -0.136
UUCUUGA | -0.886
UGGUCUC | -0.295
GGAGGGG | 4.57
CCGUUCG | -0.649

— the supplement of paper PMC5499739
